# From the supplement of paper PMC5499739
# The full ranking holds about 16,000 sequences; the median of “Z-score” is about -0.37, and the highest 2% start at about 3.1. The list shows a part of the results.
# Tested on: RBM10 RRM1-ZnF-RRM2 (GST-tagged construct)
# Experiment: RNAcompete 7-mer binding Z-score; higher = stronger binding preference
# In short: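 In 1 ml Hepes pH 7.8 buffer with KCl, NaCl, glycerol, DTT, BSA and glutathione Sepharose beads, GST-tagged RBM10 constructs (20 pmol) were incubated for 30 min at 4°C with 1.5 nmol of a designed pool of 241 399 RNAs up to 41 nt. Four 2-min washes at 4°C followed, and bound RNA was detected by microarray hybridisation. Heptamer motif enrichment was expressed as a one-sided Z-score across probes containing each motif.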
row,Sequence,RNAcompete 7-mer binding Z-score
1,ACACAAU,-0.409
2,GUGUACU,-0.227
3,UCCAACA,-0.584
4,GAACGAG,1.28
5,CUAGACU,-0.723
6,UGCGUGG,1.63
7,GAUCGCC,-0.894
8,AAUCUCG,-0.792
9,CCCAAGU,-0.511
10,UGUACAA,-0.307
11,UGAAUUC,-0.694
12,UUUUACU,-0.803
13,UUAUCCG,-0.734
14,CUGCACA,-0.544
15,ACGGUUA,0.742
16,CAACACA,-0.144
17,UCACGUU,-0.741
18,GGCGGAU,1.74
19,AAGUAGA,0.589
20,CUGGGCU,0.101
21,UGACUCG,-0.431
22,CCAGACC,-0.814
23,CAAAAAG,-0.253

row,Sequence,RNAcompete 7-mer binding Z-score
1,AGCUAGU,-0.195
2,CGUUGGA,0.548
3,CCUGUUA,-0.81
4,GGACGAC,1.18
5,GCAAGGA,2.65
6,GCCUCAC,-0.683
7,AAGGGAG,4.04
8,GAGAGUG,1.66
9,CCCGGGG,0.585
10,GGAUCGU,0.388
11,GACACUG,-0.548
12,GACGUCC,-0.876
13,UAUGUCG,-0.326
14,AUGCAUG,-0.0525
15,CUCCAUU,-0.846
16,GCGUCUA,-0.486
17,CUAACUC,-0.657
18,UAUUCCU,-0.803
19,UUCAAAC,-0.763
20,GGUAAGC,1.79
21,GGUACUA,0.701
22,UCAUCUA,-0.803
23,CGUGACU,-0.275

row,Sequence,RNAcompete 7-mer binding Z-score
1,UUGGAAA,0.538
2,GGUGGAG,3.9
3,UGAGGGG,3.5
4,UAAUGUG,0.432
5,AUCAACC,-0.686
6,UCUUAGG,-0.355
7,UUAUCCU,-0.901
8,UCGCGUG,-0.0889
9,GUGGCGG,3.22
10,UCCGCGA,-0.701
11,GAAGGGC,3.32
12,UAGGGAA,3.46
13,CUUCGGC,-0.766
14,GCGCACU,-0.442
15,CCGAUUG,-0.606
16,GCGCAGC,0.202
17,UCUUAAG,-0.65
18,GCGUAUC,-0.278
19,CGAUGCU,-0.635
20,CGGCUCA,-0.53
21,ACGCAUU,-0.592
22,AUCUUUU,-0.657
23,AGAGAAA,0.621

row,Sequence,RNAcompete 7-mer binding Z-score
1,UAGGCGA,1.82
2,GACUCGG,-0.256
3,GGCUGCC,-0.078
4,AUUGUUC,-0.61
5,AUUACCG,-0.49
6,AUUAUUA,-0.57
7,AAUGACC,-0.482
8,UGACUUA,-0.69
9,UGCCGAC,-0.715
10,AAUCCCA,-0.73
11,CGACACA,-0.311
12,UGCUAUU,-0.661
13,CACGGUC,-0.362
14,CCUUCGC,-0.967
15,UAAAAUU,-0.504
16,CAGUACG,-0.103
17,UAAGCAU,-0.555
18,UAUGAGA,0.315
19,GCCAUCU,-0.817
20,AAUUGAG,0.366
21,ACGGCUC,-0.468
22,GGCCAGC,-0.0889
23,UGGGACA,2.25

row,Sequence,RNAcompete 7-mer binding Z-score
1,GCUAGCA,-0.235
2,GGAACUG,0.909
3,UUACUGU,-0.53
4,UGUGGCU,0.345
5,CGAAGGU,1.34
6,AGGGAAG,4.36
7,UUAAUGU,-0.311
8,UGCGAGU,0.206
9,UGGUAUC,0.104
10,AAUGAGC,0.399
11,CUAUACU,-0.803
12,GUCACAG,0.487
13,UACCAAA,-0.078
14,UCUCAGU,-0.679
15,CUGUACU,-0.803
16,CAUACAG,-0.231
17,CUACAUA,-0.511
18,CGCCGUC,-0.486
19,AGAUACU,-0.701
20,GUAGACG,1.48
21,CGUAUCU,-0.599
22,AACUACU,-0.704
23,AGAGUGC,0.0786

row,Sequence,RNAcompete 7-mer binding Z-score
1,UUCGAUG,-0.307
2,AGCAUAG,0.567
3,CUGUCGU,-0.639
4,CCCGGAA,-0.5
5,AACCGGA,0.414
6,UUCCGCC,-0.836
7,AGAUGAA,1.44
8,GUUACAG,0.632
9,UGGCGAU,0.833
10,GGACCGC,-0.205
11,GGUGCAA,1.47
12,CCGACUC,-0.963
13,UGUAAGG,1.43
14,AAUGGAU,2.33
15,UGGUGGA,2.74
16,AGCGUAG,0.672
17,UGAACGG,1.34
18,UCUGUGA,-0.533
19,UGAGUAG,1.05
20,CUUUACG,-0.81
21,GAGUGCC,-0.315
22,AGCGGUC,0.173
23,GUUAAGC,-0.154

row,Sequence,RNAcompete 7-mer binding Z-score
1,CACGCCG,-0.548
2,CAACUUG,-0.694
3,UAUGCUA,-0.559
4,GUCGCUA,-0.22
5,AAAUGCG,0.221
6,UGCUCGA,-0.748
7,ACAAGCC,-0.621
8,CAGCAUG,-0.0415
9,CUAUUCA,-0.836
10,UUAAAGU,-0.46
11,CUUCUAA,-0.897
12,UCUGGAU,-0.202
13,UAAGGCC,-0.191
14,UAUUAGA,0.00944
15,CUCGAGG,0.29
16,CCGCUGG,-0.464
17,GGAACUC,0.0823
18,GCGGCUG,0.476
19,UGGCACG,0.596
20,GGCUUGA,0.0204
21,AGGAGCU,0.723
22,ACGAUCA,-0.173
23,UAUUACC,-0.792

row,Sequence,RNAcompete 7-mer binding Z-score
1,UAGCUAA,-0.369
2,UCCUUUA,-0.883
3,CUUCGAU,-0.795
4,CCCCUUC,-0.624
5,AAAUUAU,-0.533
6,AUGUCGU,-0.286
7,AUUGUGA,0.108
8,GGCUAAG,0.454
9,CCUCCGU,-0.734
10,AUCACUC,-0.77
11,CCGGUUC,-0.624
12,GUGCUAA,0.137
13,CAGGAAA,1.26
14,CCUUCAC,-0.927
15,UCCUCAA,-0.799
16,AUACGUA,0.166
17,UUUUAUG,-0.653
18,GCACACA,-0.344
19,GUAUUGU,-0.347
20,CUGAUUU,-0.799
21,UUAUCAG,-0.468
22,ACUUAAG,-0.417
23,UCCCACU,-0.781
